The supplement of paper PMC8728848
This is one part of the list.

Key:
Assay in all cases: glycan array binding signal (z-score within array); higher = stronger binding
Details in all cases: glycan notation: IUPAC condensed, linker removed
[1] = biological target: Gal(b1-3)GlcNAc(b1-6)GalNAc
Method in brief: (§1)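 Glycan array data were curated from 3228 arrays in the Consortium for Functional Glycomics database and kept only where the protein sequence was available. Glycan names were converted to IUPAC-condensed notation, and columns mapping to the same glycan were averaged. The binding signal is a within-array Z-score, averaged across arrays of the same protein sequence at different concentrations or buffers and across linkers. Negative Z-scores can be read as non-binding.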

[2] = biological target: Gal(b1-3)GlcNAc(b1-6)[Gal(b1-3)]GalNAc
Method in brief: as §1

Gal(b1-3)GlcNAc6S = biological target: Gal(b1-3)GlcNAc6S
Method in brief: as §1

[3] = biological target: Gal(b1-3)[Fuc(a1-4)]GlcNAc
Method in brief: as §1

[4] = biological target: Gal(b1-3)[Fuc(a1-4)]GlcNAc(b1-2)Man
Method in brief: as §1

[5] = biological target: Gal(b1-3)[Fuc(a1-4)]GlcNAc(b1-2)Man(a1-3)[Gal(b1-3)[Fuc(a1-4)]GlcNAc(b1-2)Man(a1-6)]Man(b1-4)GlcNAc(b1-4)[Fuc(a1-6)]GlcNAc
Method in brief: as §1

[6] = biological target: Gal(b1-3)[Fuc(a1-4)]GlcNAc(b1-3)Gal(b1-3)[Fuc(a1-4)]GlcNAc
Method in brief: as §1

[7] = biological target: Gal(b1-3)[Fuc(a1-4)]GlcNAc(b1-3)Gal(b1-4)[Fuc(a1-3)]GlcNAc
Method in brief: as §1

[8] = biological target: Gal(b1-3)[Fuc(a1-4)]GlcNAc(b1-6)GalNAc
Method in brief: as §1

[9] = biological target: Gal(b1-3)[GlcNAc(b1-6)]GalNAc
Method in brief: as §1

[10] = biological target: Gal(b1-3)[Neu5Ac(a2-6)]GalNAc
Method in brief: as §1

[11] = biological target: Gal(b1-3)[Neu5Ac(a2-6)]GlcNAc(b1-4)Gal(b1-4)Glc
Method in brief: as §1

[12] = biological target: Gal(b1-3)[Neu5Ac(b2-6)]GalNAc
Method in brief: as §1

Gal(b1-4)Gal = biological target: Gal(b1-4)Gal
Method in brief: as §1

[13] = biological target: Gal(b1-4)GalNAc(a1-3)[Fuc(a1-2)]Gal(b1-4)GlcNAc
Method in brief: as §1

[14] = biological target: Gal(b1-4)GalNAc(b1-3)[Fuc(a1-2)]Gal(b1-4)GlcNAc
Method in brief: as §1

Gal(b1-4)Glc = biological target: Gal(b1-4)Glc
Method in brief: as §1

Gal(b1-4)Glc6S = biological target: Gal(b1-4)Glc6S
Method in brief: as §1

Gal(b1-4)GlcNAc = biological target: Gal(b1-4)GlcNAc
Method in brief: as §1

[15] = biological target: Gal(b1-4)GlcNAc(a1-6)Gal(b1-4)GlcNAc
Method in brief: as §1

Gal(b1-4)GlcNAc(b1-2)Man = biological target: Gal(b1-4)GlcNAc(b1-2)Man
Method in brief: as §1

[16] = biological target: Gal(b1-4)GlcNAc(b1-2)Man(a1-3)Man(b1-4)GlcNAc(b1-4)GlcNAc
Method in brief: as §1

[17] = biological target: Gal(b1-4)GlcNAc(b1-2)Man(a1-3)[Gal(b1-4)GlcNAc(b1-2)Man(a1-6)]Man(b1-4)GlcNAc(b1-4)GlcNAc
Method in brief: as §1

[18] = biological target: Gal(b1-4)GlcNAc(b1-2)Man(a1-3)[Gal(b1-4)GlcNAc(b1-2)Man(a1-6)]Man(b1-4)GlcNAc(b1-4)[Fuc(a1-6)]GlcNAc
Method in brief: as §1

[19] = biological target: Gal(b1-4)GlcNAc(b1-2)Man(a1-3)[Gal(b1-4)GlcNAc(b1-2)Man(a1-6)][Gal(b1-4)GlcNAc(b1-4)]Man(b1-4)GlcNAc(b1-4)[Fuc(a1-6)]GlcNAc
Method in brief: as §1

[20] = biological target: Gal(b1-4)GlcNAc(b1-2)Man(a1-3)[Gal(b1-4)GlcNAc(b1-2)Man(a1-6)][GlcNAc(b1-4)]Man(b1-4)GlcNAc(b1-4)[Fuc(a1-6)]GlcNAc
Method in brief: as §1

[21] = biological target: Gal(b1-4)GlcNAc(b1-2)Man(a1-3)[GlcNAc(b1-2)Man(a1-6)]Man(b1-4)GlcNAc(b1-4)GlcNAc
Method in brief: as §1

[22] = biological target: Gal(b1-4)GlcNAc(b1-2)Man(a1-3)[GlcNAc(b1-4)][Gal(b1-4)GlcNAc(b1-2)Man(a1-6)]Man(b1-4)GlcNAc(b1-4)GlcNAc
Method in brief: as §1

[23] = biological target: Gal(b1-4)GlcNAc(b1-2)Man(a1-3)[Man(a1-6)]Man(b1-4)GlcNAc(b1-4)GlcNAc
Method in brief: as §1

[24] = biological target: Gal(b1-4)GlcNAc(b1-2)Man(a1-6)Man(b1-4)GlcNAc(b1-4)GlcNAc
Method in brief: as §1

[25] = biological target: Gal(b1-4)GlcNAc(b1-2)Man(a1-6)[GlcNAc(b1-2)Man(a1-3)]Man(b1-4)GlcNAc(b1-4)GlcNAc
Method in brief: as §1

[26] = biological target: Gal(b1-4)GlcNAc(b1-2)Man(a1-6)[Man(a1-3)]Man(b1-4)GlcNAc(b1-4)GlcNAc
Method in brief: as §1

[27] = biological target: Gal(b1-4)GlcNAc(b1-2)[Gal(b1-4)GlcNAc(b1-4)]Man(a1-3)[Gal(b1-4)GlcNAc(b1-2)Man(a1-6)]Man(b1-4)GlcNAc(b1-4)GlcNAc
Method in brief: as §1

[28] = biological target: Gal(b1-4)GlcNAc(b1-2)[Gal(b1-4)GlcNAc(b1-4)]Man(a1-3)[Gal(b1-4)GlcNAc(b1-2)[Gal(b1-4)GlcNAc(b1-6)]Man(a1-6)]Man(b1-4)GlcNAc(b1-4)GlcNAc
Method in brief: as §1

[29] = biological target: Gal(b1-4)GlcNAc(b1-2)[Gal(b1-4)GlcNAc(b1-4)]Man(a1-3)[GlcNAc(b1-4)][Gal(b1-4)GlcNAc(b1-2)Man(a1-6)]Man(b1-4)GlcNAc(b1-4)GlcNAc
Method in brief: as §1

[30] = biological target: Gal(b1-4)GlcNAc(b1-2)[Gal(b1-4)GlcNAc(b1-4)]Man(a1-3)[GlcNAc(b1-4)][Gal(b1-4)GlcNAc(b1-2)[Gal(b1-4)GlcNAc(b1-6)]Man(a1-6)]Man(b1-4)GlcNAc(b1-4)GlcNAc
Method in brief: as §1

[31] = biological target: Gal(b1-4)GlcNAc(b1-2)[Gal(b1-4)GlcNAc(b1-6)]Man(a1-6)[Gal(b1-4)GlcNAc(b1-2)Man(a1-3)]Man(b1-4)GlcNAc(b1-4)GlcNAc
Method in brief: as §1

[32] = biological target: Gal(b1-4)GlcNAc(b1-2)[Gal(b1-4)GlcNAc(b1-6)]Man(a1-6)[Gal(b1-4)GlcNAc(b1-2)Man(a1-3)]Man(b1-4)GlcNAc(b1-4)[Fuc(a1-6)]GlcNAc
Method in brief: as §1

[33] = biological target: Gal(b1-4)GlcNAc(b1-2)[Gal(b1-4)GlcNAc(b1-6)]Man(a1-6)[GlcNAc(b1-4)][Gal(b1-4)GlcNAc(b1-2)Man(a1-3)]Man(b1-4)GlcNAc(b1-4)GlcNAc
Method in brief: as §1

[34] = biological target: Gal(b1-4)GlcNAc(b1-2)[Gal(b1-4)GlcNAc(b1-6)]Man(a1-6)[GlcNAc(b1-4)][Gal(b1-4)GlcNAc(b1-2)[Gal(b1-4)GlcNAc(b1-4)]Man(a1-3)]Man(b1-4)GlcNAc(b1-4)[Fuc(a1-6)]GlcNAc
Method in brief: as §1

[35] = biological target: Gal(b1-4)GlcNAc(b1-3)Gal(b1-3)GalNAc
Method in brief: as §1

[36] = biological target: Gal(b1-4)GlcNAc(b1-3)Gal(b1-3)GlcNAc
Method in brief: as §1

[37] = biological target: Gal(b1-4)GlcNAc(b1-3)Gal(b1-4)Glc
Method in brief: as §1

[38] = biological target: Gal(b1-4)GlcNAc(b1-3)Gal(b1-4)GlcNAc
Method in brief: as §1

[39] = biological target: Gal(b1-4)GlcNAc(b1-3)Gal(b1-4)GlcNAc(b1-2)Man(a1-3)[Gal(b1-4)GlcNAc(b1-3)Gal(b1-4)GlcNAc(b1-2)Man(a1-6)]Man(b1-4)GlcNAc(b1-4)GlcNAc
Method in brief: as §1

B1: CML1 (Coprinopsis cinerea) (protein)
chain: MAIFHTGSELFIITRGPGKLTLLTWGGLNNLRSVIGAIPTENTGVTKWAVSFSHNYTRFSFIWEGQGEACYQIGNGLTRSPVGRSWSSSSTIHWGSSTVITEDVTSVVPGAVNRDKVTTAYALPDNL
With B1 the “glycan array binding signal (z-score)” value [1] was -0.336, the “glycan array binding signal (z-score)” value [2] was -0.328 and the “glycan array binding signal (z-score)” value (Gal(b1-3)GlcNAc6S) was -0.32. For the same binder, the “glycan array binding signal (z-score)” value [3] was 2.06, the “glycan array binding signal (z-score)” value [4] was -0.284 and the “glycan array binding signal (z-score)” value [5] was -0.351. For the same binder, the “glycan array binding signal (z-score)” value [6] was 2.67, the “glycan array binding signal (z-score)” value [7] was 1.68 and the “glycan array binding signal (z-score)” value [8] was 0.085. For the same binder, the “glycan array binding signal (z-score)” value [9] was -0.332, the “glycan array binding signal (z-score)” value [10] was -0.338 and the “glycan array binding signal (z-score)” value [11] was -0.334. The “glycan array binding signal (z-score)” value [12] was -0.351, the “glycan array binding signal (z-score)” value (Gal(b1-4)Gal) was -0.331 and the “glycan array binding signal (z-score)” value [13] was -0.344. For the same binder, the “glycan array binding signal (z-score)” value [14] was -0.335, the “glycan array binding signal (z-score)” value (Gal(b1-4)Glc) was -0.365 and the “glycan array binding signal (z-score)” value (Gal(b1-4)Glc6S) was -0.319. The “glycan array binding signal (z-score)” value (Gal(b1-4)GlcNAc) was -0.355, the “glycan array binding signal (z-score)” value [15] was -0.358 and the “glycan array binding signal (z-score)” value (Gal(b1-4)GlcNAc(b1-2)Man) was -0.326. The “glycan array binding signal (z-score)” value [16] was -0.341, the “glycan array binding signal (z-score)” value [17] was -0.346 and the “glycan array binding signal (z-score)” value [18] was -0.31. For the same binder, the “glycan array binding signal (z-score)” value [19] was -0.348, the “glycan array binding signal (z-score)” value [20] was -0.343 and the “glycan array binding signal (z-score)” value [21] was -0.342. The “glycan array binding signal (z-score)” value [22] was -0.336, the “glycan array binding signal (z-score)” value [23] was -0.339 and the “glycan array binding signal (z-score)” value [24] was -0.345. For the same binder, the “glycan array binding signal (z-score)” value [25] was -0.345, the “glycan array binding signal (z-score)” value [26] was -0.312 and the “glycan array binding signal (z-score)” value [27] was -0.294. For the same binder, the “glycan array binding signal (z-score)” value [28] was -0.334, the “glycan array binding signal (z-score)” value [29] was -0.335 and the “glycan array binding signal (z-score)” value [30] was -0.343. For the same binder, the “glycan array binding signal (z-score)” value [31] was -0.329, the “glycan array binding signal (z-score)” value [32] was -0.319 and the “glycan array binding signal (z-score)” value [33] was -0.329. For the same binder, the “glycan array binding signal (z-score)” value [34] was -0.355, the “glycan array binding signal (z-score)” value [35] was -0.345 and the “glycan array binding signal (z-score)” value [36] was -0.326. The “glycan array binding signal (z-score)” value [37] was -0.333, the “glycan array binding signal (z-score)” value [38] was -0.341 and the “glycan array binding signal (z-score)” value [39] was -0.317.
